In the supplement of paper PMC12230231:

These sequences were tested on SIVsab (simian immunodeficiency virus of sabaeus monkeys), single-cycle GFP reporter, in CRFK cells (assay: enrichment among infected cells over input (fold); higher = weaker restriction). Conditions: library: human / rhesus combinations.
Protocol: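 Pools of CRFK cells expressing variants of the TRIM5α v1 loop were challenged with the single-cycle reporter, sorted by GFP and sequenced; mean of two replicates.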

**Q.** Which enrichment does the source give for “MASGILLNVKEEVTCPICLELLTEPLSLHCGHSFCQACITANHKKSMLYKEGERSCPVCRISYQPENIQPNRHVANIVEKLREVKLSPEEGQKVDHCARHGEKLLLFCQEDSKVICWLCERSQEHRGHHTFLMEEVAQEYHVKLQTALEMLRQKQQEAEKLEADIREEKASWKIQIDYDKTNVSADFEQLREILDWEESNELQNLEKEEEDILKSLTKSETEMVQQTQYMRELISELEHRLQGSMMDLLQGVDGIIKRIENMTLKKPKTFHKNQRRVFRAPDLKGMLDMFRELTDARRYWVDVTLAPNNISHAVIAEDKRQVSSRNPQIMYQARGTRYTFQTLTNFNYCTGVLGSQSITSGKHYWEVDVSKKSAWILGVCAGFQSDAMYNIEQNENYQPKYGYWVIGLQEGVKYSVFQDGSSHTPFAPFIVPLSVIICPDRVGVFVDYEACTVSFFNITNHGFLIYKFSQCSFSKPVFPYLNPRKCTVPMTLCSPSS [rhesus TRIM5α, 332-344 = QARGTRYTFQTLT]” here?
**A.** 1.03 ± 0.078

**Q.** Which enrichment does the source give for “MASGILLNVKEEVTCPICLELLTEPLSLHCGHSFCQACITANHKKSMLYKEGERSCPVCRISYQPENIQPNRHVANIVEKLREVKLSPEEGQKVDHCARHGEKLLLFCQEDSKVICWLCERSQEHRGHHTFLMEEVAQEYHVKLQTALEMLRQKQQEAEKLEADIREEKASWKIQIDYDKTNVSADFEQLREILDWEESNELQNLEKEEEDILKSLTKSETEMVQQTQYMRELISELEHRLQGSMMDLLQGVDGIIKRIENMTLKKPKTFHKNQRRVFRAPDLKGMLDMFRELTDARRYWVDVTLAPNNISHAVIAEDKRQVSSRNPQIMYGAPGTRFTFQSLTNFNYCTGVLGSQSITSGKHYWEVDVSKKSAWILGVCAGFQSDAMYNIEQNENYQPKYGYWVIGLQEGVKYSVFQDGSSHTPFAPFIVPLSVIICPDRVGVFVDYEACTVSFFNITNHGFLIYKFSQCSFSKPVFPYLNPRKCTVPMTLCSPSS [rhesus TRIM5α, 332-344 = GAPGTRFTFQSLT]” here?
**A.** 1.26 ± 0.26

**Q.** “MASGILLNVKEEVTCPICLELLTEPLSLHCGHSFCQACITANHKKSMLYKEGERSCPVCRISYQPENIQPNRHVANIVEKLREVKLSPEEGQKVDHCARHGEKLLLFCQEDSKVICWLCERSQEHRGHHTFLMEEVAQEYHVKLQTALEMLRQKQQEAEKLEADIREEKASWKIQIDYDKTNVSADFEQLREILDWEESNELQNLEKEEEDILKSLTKSETEMVQQTQYMRELISELEHRLQGSMMDLLQGVDGIIKRIENMTLKKPKTFHKNQRRVFRAPDLKGMLDMFRELTDARRYWVDVTLAPNNISHAVIAEDKRQVSSRNPQIMYGAPGTRFTFQTLTNFNYCTGVLGSQSITSGKHYWEVDVSKKSAWILGVCAGFQSDAMYNIEQNENYQPKYGYWVIGLQEGVKYSVFQDGSSHTPFAPFIVPLSVIICPDRVGVFVDYEACTVSFFNITNHGFLIYKFSQCSFSKPVFPYLNPRKCTVPMTLCSPSS [rhesus TRIM5α, 332-344 = GAPGTRFTFQTLT]” was tested. Which enrichment did it give?
**A.** 1.17 ± 0.29

**Q.** Which enrichment does the source give for “MASGILLNVKEEVTCPICLELLTEPLSLHCGHSFCQACITANHKKSMLYKEGERSCPVCRISYQPENIQPNRHVANIVEKLREVKLSPEEGQKVDHCARHGEKLLLFCQEDSKVICWLCERSQEHRGHHTFLMEEVAQEYHVKLQTALEMLRQKQQEAEKLEADIREEKASWKIQIDYDKTNVSADFEQLREILDWEESNELQNLEKEEEDILKSLTKSETEMVQQTQYMRELISELEHRLQGSMMDLLQGVDGIIKRIENMTLKKPKTFHKNQRRVFRAPDLKGMLDMFRELTDARRYWVDVTLAPNNISHAVIAEDKRQVSSRNPQIMYGAPGTLFTFQTLTNFNYCTGVLGSQSITSGKHYWEVDVSKKSAWILGVCAGFQSDAMYNIEQNENYQPKYGYWVIGLQEGVKYSVFQDGSSHTPFAPFIVPLSVIICPDRVGVFVDYEACTVSFFNITNHGFLIYKFSQCSFSKPVFPYLNPRKCTVPMTLCSPSS [rhesus TRIM5α, 332-344 = GAPGTLFTFQTLT]” here?
**A.** 1.36 ± 0.62

**Q.** For “MASGILLNVKEEVTCPICLELLTEPLSLHCGHSFCQACITANHKKSMLYKEGERSCPVCRISYQPENIQPNRHVANIVEKLREVKLSPEEGQKVDHCARHGEKLLLFCQEDSKVICWLCERSQEHRGHHTFLMEEVAQEYHVKLQTALEMLRQKQQEAEKLEADIREEKASWKIQIDYDKTNVSADFEQLREILDWEESNELQNLEKEEEDILKSLTKSETEMVQQTQYMRELISELEHRLQGSMMDLLQGVDGIIKRIENMTLKKPKTFHKNQRRVFRAPDLKGMLDMFRELTDARRYWVDVTLAPNNISHAVIAEDKRQVSSRNPQIMYQARGTRYQSLTNFNYCTGVLGSQSITSGKHYWEVDVSKKSAWILGVCAGFQSDAMYNIEQNENYQPKYGYWVIGLQEGVKYSVFQDGSSHTPFAPFIVPLSVIICPDRVGVFVDYEACTVSFFNITNHGFLIYKFSQCSFSKPVFPYLNPRKCTVPMTLCSPSS [rhesus TRIM5α, 332-344 = QARGTRYQSLT]”, which enrichment is on record?
**A.** 1.01 ± 0.4

**Q.** How did the enrichment turn out when “MASGILLNVKEEVTCPICLELLTEPLSLHCGHSFCQACITANHKKSMLYKEGERSCPVCRISYQPENIQPNRHVANIVEKLREVKLSPEEGQKVDHCARHGEKLLLFCQEDSKVICWLCERSQEHRGHHTFLMEEVAQEYHVKLQTALEMLRQKQQEAEKLEADIREEKASWKIQIDYDKTNVSADFEQLREILDWEESNELQNLEKEEEDILKSLTKSETEMVQQTQYMRELISELEHRLQGSMMDLLQGVDGIIKRIENMTLKKPKTFHKNQRRVFRAPDLKGMLDMFRELTDARRYWVDVTLAPNNISHAVIAEDKRQVSSRNPQIMYQAPGTRFTFQTLTNFNYCTGVLGSQSITSGKHYWEVDVSKKSAWILGVCAGFQSDAMYNIEQNENYQPKYGYWVIGLQEGVKYSVFQDGSSHTPFAPFIVPLSVIICPDRVGVFVDYEACTVSFFNITNHGFLIYKFSQCSFSKPVFPYLNPRKCTVPMTLCSPSS [rhesus TRIM5α, 332-344 = QAPGTRFTFQTLT]” was run?
**A.** 1.52 ± 0.12

**Q.** How did the enrichment turn out when “MASGILLNVKEEVTCPICLELLTEPLSLHCGHSFCQACITANHKKSMLYKEGERSCPVCRISYQPENIQPNRHVANIVEKLREVKLSPEEGQKVDHCARHGEKLLLFCQEDSKVICWLCERSQEHRGHHTFLMEEVAQEYHVKLQTALEMLRQKQQEAEKLEADIREEKASWKIQIDYDKTNVSADFEQLREILDWEESNELQNLEKEEEDILKSLTKSETEMVQQTQYMRELISELEHRLQGSMMDLLQGVDGIIKRIENMTLKKPKTFHKNQRRVFRAPDLKGMLDMFRELTDARRYWVDVTLAPNNISHAVIAEDKRQVSSRNPQIMYQARGTLFTFQSLVNFNYCTGVLGSQSITSGKHYWEVDVSKKSAWILGVCAGFQSDAMYNIEQNENYQPKYGYWVIGLQEGVKYSVFQDGSSHTPFAPFIVPLSVIICPDRVGVFVDYEACTVSFFNITNHGFLIYKFSQCSFSKPVFPYLNPRKCTVPMTLCSPSS [rhesus TRIM5α, 332-344 = QARGTLFTFQSLV]” was run?
**A.** 1.47 ± 0.3

**Q.** How did the enrichment turn out when “MASGILLNVKEEVTCPICLELLTEPLSLHCGHSFCQACITANHKKSMLYKEGERSCPVCRISYQPENIQPNRHVANIVEKLREVKLSPEEGQKVDHCARHGEKLLLFCQEDSKVICWLCERSQEHRGHHTFLMEEVAQEYHVKLQTALEMLRQKQQEAEKLEADIREEKASWKIQIDYDKTNVSADFEQLREILDWEESNELQNLEKEEEDILKSLTKSETEMVQQTQYMRELISELEHRLQGSMMDLLQGVDGIIKRIENMTLKKPKTFHKNQRRVFRAPDLKGMLDMFRELTDARRYWVDVTLAPNNISHAVIAEDKRQVSSRNPQIMYGAPGTRFTFPSFTNFNYCTGVLGSQSITSGKHYWEVDVSKKSAWILGVCAGFQSDAMYNIEQNENYQPKYGYWVIGLQEGVKYSVFQDGSSHTPFAPFIVPLSVIICPDRVGVFVDYEACTVSFFNITNHGFLIYKFSQCSFSKPVFPYLNPRKCTVPMTLCSPSS [rhesus TRIM5α, 332-344 = GAPGTRFTFPSFT]” was run?
**A.** 0.991 ± 0.29

**Q.** “MASGILLNVKEEVTCPICLELLTEPLSLHCGHSFCQACITANHKKSMLYKEGERSCPVCRISYQPENIQPNRHVANIVEKLREVKLSPEEGQKVDHCARHGEKLLLFCQEDSKVICWLCERSQEHRGHHTFLMEEVAQEYHVKLQTALEMLRQKQQEAEKLEADIREEKASWKIQIDYDKTNVSADFEQLREILDWEESNELQNLEKEEEDILKSLTKSETEMVQQTQYMRELISELEHRLQGSMMDLLQGVDGIIKRIENMTLKKPKTFHKNQRRVFRAPDLKGMLDMFRELTDARRYWVDVTLAPNNISHAVIAEDKRQVSSRNPQIMYQARGTLYTFQTFVNFNYCTGVLGSQSITSGKHYWEVDVSKKSAWILGVCAGFQSDAMYNIEQNENYQPKYGYWVIGLQEGVKYSVFQDGSSHTPFAPFIVPLSVIICPDRVGVFVDYEACTVSFFNITNHGFLIYKFSQCSFSKPVFPYLNPRKCTVPMTLCSPSS [rhesus TRIM5α, 332-344 = QARGTLYTFQTFV]” was tested. Which enrichment did it give?
**A.** 0.991 ± 0.54

**Q.** How did the enrichment turn out when “MASGILLNVKEEVTCPICLELLTEPLSLHCGHSFCQACITANHKKSMLYKEGERSCPVCRISYQPENIQPNRHVANIVEKLREVKLSPEEGQKVDHCARHGEKLLLFCQEDSKVICWLCERSQEHRGHHTFLMEEVAQEYHVKLQTALEMLRQKQQEAEKLEADIREEKASWKIQIDYDKTNVSADFEQLREILDWEESNELQNLEKEEEDILKSLTKSETEMVQQTQYMRELISELEHRLQGSMMDLLQGVDGIIKRIENMTLKKPKTFHKNQRRVFRAPDLKGMLDMFRELTDARRYWVDVTLAPNNISHAVIAEDKRQVSSRNPQIMYGAPGTRYTFPTLTNFNYCTGVLGSQSITSGKHYWEVDVSKKSAWILGVCAGFQSDAMYNIEQNENYQPKYGYWVIGLQEGVKYSVFQDGSSHTPFAPFIVPLSVIICPDRVGVFVDYEACTVSFFNITNHGFLIYKFSQCSFSKPVFPYLNPRKCTVPMTLCSPSS [rhesus TRIM5α, 332-344 = GAPGTRYTFPTLT]” was run?
**A.** 0.607 ± 0.23

**Q.** With “MASGILLNVKEEVTCPICLELLTEPLSLHCGHSFCQACITANHKKSMLYKEGERSCPVCRISYQPENIQPNRHVANIVEKLREVKLSPEEGQKVDHCARHGEKLLLFCQEDSKVICWLCERSQEHRGHHTFLMEEVAQEYHVKLQTALEMLRQKQQEAEKLEADIREEKASWKIQIDYDKTNVSADFEQLREILDWEESNELQNLEKEEEDILKSLTKSETEMVQQTQYMRELISELEHRLQGSMMDLLQGVDGIIKRIENMTLKKPKTFHKNQRRVFRAPDLKGMLDMFRELTDARRYWVDVTLAPNNISHAVIAEDKRQVSSRNPQIMYGAPGTRYTFPSFVNFNYCTGVLGSQSITSGKHYWEVDVSKKSAWILGVCAGFQSDAMYNIEQNENYQPKYGYWVIGLQEGVKYSVFQDGSSHTPFAPFIVPLSVIICPDRVGVFVDYEACTVSFFNITNHGFLIYKFSQCSFSKPVFPYLNPRKCTVPMTLCSPSS [rhesus TRIM5α, 332-344 = GAPGTRYTFPSFV]” as the sequence, how does the enrichment read?
**A.** 2.26 ± 0.99

**Q.** “MASGILLNVKEEVTCPICLELLTEPLSLHCGHSFCQACITANHKKSMLYKEGERSCPVCRISYQPENIQPNRHVANIVEKLREVKLSPEEGQKVDHCARHGEKLLLFCQEDSKVICWLCERSQEHRGHHTFLMEEVAQEYHVKLQTALEMLRQKQQEAEKLEADIREEKASWKIQIDYDKTNVSADFEQLREILDWEESNELQNLEKEEEDILKSLTKSETEMVQQTQYMRELISELEHRLQGSMMDLLQGVDGIIKRIENMTLKKPKTFHKNQRRVFRAPDLKGMLDMFRELTDARRYWVDVTLAPNNISHAVIAEDKRQVSSRNPQIMYQAPGTLFTFQTFVNFNYCTGVLGSQSITSGKHYWEVDVSKKSAWILGVCAGFQSDAMYNIEQNENYQPKYGYWVIGLQEGVKYSVFQDGSSHTPFAPFIVPLSVIICPDRVGVFVDYEACTVSFFNITNHGFLIYKFSQCSFSKPVFPYLNPRKCTVPMTLCSPSS [rhesus TRIM5α, 332-344 = QAPGTLFTFQTFV]” was tested. Which enrichment did it give?
**A.** 1.25 ± 0.086

± gives the standard deviation of the averaged measurements. Restriction of a single-cycle SIVsab GFP reporter by TRIM5α v1-loop variants in CRFK cells. Human variants: read share among cells still uninfected after two challenges over input, higher = gained restriction. Rhesus variants: share among infected cells over input, higher = lost restriction. Reporter dose not given per row. No active / inactive call per row; the paper calls a change when both replicates lie above its controls (mean + 2 SD of stop or wild-type variants, or the top frameshift score). Residues outside the varied loop are taken from Swiss-Prot. The paper reads the human single-substitution scores as noise; they and the rhesus combinations repeat poorly (rank correlation 0.3 to 0.4), indel scores repeat only for the top variants, rhesus substitutions well (0.9).
